Measurements from PubChem BioAssay (Tox21).
Several values for one entry are separate records, joined by “and”; a condition that tells them apart may be missing. Equal values may be shown once. The inconclusive results got no clear call from the source; some entries with a clear call stand among them for comparison. Potencies beside an inconclusive call are fits to weak or partial responses and may not hold up. Activity calls are given as the source filed them. Calls follow the shape of the dose curve; as a rule, active = well fitted cell-killing curve with a large enough effect in the repeat runs; inconclusive = weak or mixed curves, or effect the other way; inactive = flat fitted curve, though single readings scatter.

Assay: qHTS assay to identify small molecule antagonists of the constitutive androstane receptor (CAR) signaling pathway - cell viability counter screen (AID 1224837); also: nearly all actives have a fitted effect of over 45% in size
Conditions: HepG2-CYP2B6-hCAR viability, CellTiter-Fluor, 23 h, co-treated with 50 nM CITCO; series mostly up to 92.4 µM
How it was run: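 In quantitative HTS format, compounds at 15 concentrations were applied to HepG2 cells double-transfected with hCAR and CYP2B6-2.2kb under 50 nM CITCO stimulation; live-cell protease activity was read after 23 hr via CellTiter-Fluor.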
% is scaled to controls: 0 for no effect and ±100 for the full control effect; potency is read from the fitted curve at half-maximal effect; tags tell the direction and shape of the fitted curve.

SMILES | Potency | activity change, negative = cytotoxicity
O=C(N[C@H](c1ccccc1)[C@@H]1CN2CCC1CC2)c1c(Cl)ccc(C(F)(F)F)c1Cl | inconclusive: 49.3 µM [cytotoxic, partial curve] | –
Clc1c(Cl)c(Cl)c(Cl)c(Cl)c1Cl | – | inactive: 2.2% [at 8.39 µM]
C=C(C#N)CCC#N | inactive | –
S=C1NCCN1 | inactive | –
CC(C)Nc1ccc(Nc2ccccc2)cc1 | active: 54.3 µM and inconclusive: 68.6 µM [cytotoxic] | –
CN(C)C(=S)[S-].CN(C)C(=S)[S-].[Cu+2] | active: 1.49 µM | –
CC(C)(C)C(O)/C(=C\c1ccc(Cl)cc1Cl)n1cncn1 (stereo not drawn) | inconclusive: 65.9 µM [cytotoxic, partial curve] | –
ClCc1ccccc1 | inactive | –
O=[N+]([O-])/N=C1\NCCN1Cc1ccc(Cl)nc1 | inactive | –
N#Cc1nn(-c2c(Cl)cc(C(F)(F)F)cc2Cl)c(N)c1S(=O)C(F)(F)F (stereo not drawn) | inconclusive: 34.6 µM [cytotoxic, partial curve] | –
C=C(C)C(=O)OCC1CO1 (stereo not drawn) | inactive | –
CN=C=O | inactive | –
Clc1cc(Cl)c(Cl)c(Cl)c1 | inactive | –
Cl/C=C\Cl | inactive | –
ClCC1CO1 (stereo not drawn) | inactive | –
O=C(CCl)C(Cl)Cl | inconclusive: 17.4 µM [cytotoxic, full curve] | –
Clc1ccc(CSC(Cn2ccnc2)c2ccc(Cl)cc2Cl)cc1 (stereo not drawn) | inconclusive: 29.8 µM [cytotoxic, partial curve, poor fit] | –
CCN(CC)C(=O)Cl | inactive | –
CC(=NC#N)N(C)Cc1ccc(Cl)nc1 | inactive | –

SMILES | Potency | activity change, negative = cytotoxicity
CC(C(O)c1ccccc1)N(C)C/C=C/c1ccccc1 (stereo not drawn) | inactive | –
CSC(=O)c1c(C(F)F)nc(C(F)(F)F)c(C(=O)SC)c1CC(C)C | inactive | –
C[N+](C)=CCl | inactive | –
COCC(=O)N(c1c(C)cccc1C)N1CCOC1=O | inactive | –
S=C=NCc1ccccc1 | inconclusive: 69.3 µM [cytotoxic, single point] | –
O=C(C(Cl)(Cl)Cl)C(Cl)(Cl)Cl | inactive | –
COc1ccc2c3c1O[C@H]1[C@@H](O)C=C[C@H]4[C@@H](C2)N(C)CC[C@@]341 | inconclusive: 53.6 µM [cytotoxic, partial curve] | –
CC(C)CP(=S)(S)CC(C)C | inconclusive: 3.44 µM [cytotoxic, full curve] | –
C[CH2][Hg][N]1C(=O)C2C(C1=O)C1(Cl)C(Cl)=C(Cl)C2(Cl)C1(Cl)Cl (stereo not drawn) | active: 13 µM | –
OCC1CO1 (stereo not drawn) | inactive | –
Clc1ccc(CCC(Cn2ccnc2)Sc2c(Cl)cccc2Cl)cc1 (stereo not drawn) | inconclusive: 33.5 µM [cytotoxic, partial curve, poor fit] | –
COP(=S)(OC)SCn1nnc2ccccc2c1=O | inconclusive: 61.1 µM [cytotoxic] | –
CCCC(Cn1cncn1)c1ccc(Cl)cc1Cl (stereo not drawn) | inconclusive: 68.6 µM [cytotoxic, partial curve, poor fit] | –
Nc1nc(N)nc(N)n1 | inactive | –
CC(C)N(C(=O)CCl)c1ccccc1 | active: 54.5 µM and active: 48.6 µM | –
CCC(C)(NC(=O)c1cc(Cl)c(C)c(Cl)c1)C(=O)CCl (stereo not drawn) | inconclusive: 61.5 µM [cytotoxic, partial curve] | –
Clc1cc(C(Cl)(Cl)Cl)cnc1Cl | inconclusive: 54.5 µM [cytotoxic, partial curve] | –
CCOCn1c(-c2ccc(Cl)cc2)c(C#N)c(Br)c1C(F)(F)F | active: 4.33 µM | –
CN(C)CCc1c[nH]c2cccc(O)c12 | inconclusive: 67.9 µM [cytotoxic, partial curve, poor fit] | –
